# Reference: the supplement of paper PMC8728848
# This is one part of the list.
# What was measured:
# Test in all cases: glycan array binding signal (z-score within array); higher = stronger binding
# Conditions in all cases: glycan notation: IUPAC condensed, linker removed
# [1] = biological target: Gal(b1-4)GlcNAc(b1-3)Gal(b1-4)GlcNAc(b1-3)[Gal(b1-4)GlcNAc(b1-3)Gal(b1-4)GlcNAc(b1-6)]GalNAc
# In short: (§1)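 From the Consortium for Functional Glycomics database, 3228 arrays were curated, keeping only those whose protein sequence was available. Binding is given as a within-array Z-score averaged across arrays sharing a protein sequence and across linkers. Negative Z-scores can be read as non-binding.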
# [2] = biological target: Gal(b1-4)GlcNAc(b1-3)Gal(b1-4)GlcNAc(b1-6)[Gal(b1-3)]GalNAc
# In short: as §1
# [3] = biological target: Gal(b1-4)GlcNAc(b1-3)Gal(b1-4)[Fuc(a1-3)]GlcNAc(b1-3)Gal(b1-4)[Fuc(a1-3)]GlcNAc
# In short: as §1
# [4] = biological target: Gal(b1-4)GlcNAc(b1-3)GalNAc
# In short: as §1
# [5] = biological target: Gal(b1-4)GlcNAc(b1-3)[Fuc(a1-3)GlcNAc(b1-6)]Gal(b1-4)Glc
# In short: as §1
# [6] = biological target: Gal(b1-4)GlcNAc(b1-3)[Gal(b1-4)GlcNAc(b1-6)]Gal(b1-4)GlcNAc
# In short: as §1
# [7] = biological target: Gal(b1-4)GlcNAc(b1-3)[Gal(b1-4)GlcNAc(b1-6)]GalNAc
# In short: as §1
# [8] = biological target: Gal(b1-4)GlcNAc(b1-3)[GlcNAc(b1-6)]Gal(b1-4)GlcNAc
# In short: as §1
# [9] = biological target: Gal(b1-4)GlcNAc(b1-6)Gal(b1-4)GlcNAc
# In short: as §1
# [10] = biological target: Gal(b1-4)GlcNAc(b1-6)GalNAc
# In short: as §1
# [11] = biological target: Gal(b1-4)GlcNAc(b1-6)[Gal(b1-3)]GalNAc
# In short: as §1
# [12] = biological target: Gal(b1-4)GlcNAc(b1-6)[Gal(b1-3)]GlcNAc
# In short: as §1
# [13] = biological target: Gal(b1-4)GlcNAc(b1-6)[Gal(b1-4)GlcNAc(b1-3)]GalNAc
# In short: as §1
# [14] = biological target: Gal(b1-4)GlcNAc6P
# In short: as §1
# [15] = biological target: Gal(b1-6)Gal
# In short: as §1
# [16] = biological target: Gal3S(b1-3)GalNAc
# In short: as §1
# [17] = biological target: Gal3S(b1-3)GlcNAc
# In short: as §1
# [18] = biological target: Gal3S(b1-3)[Fuc(a1-4)]GlcNAc
# In short: as §1
# [19] = biological target: Gal3S(b1-4)Glc
# In short: as §1
# [20] = biological target: Gal3S(b1-4)Glc6S
# In short: as §1
# [21] = biological target: Gal3S(b1-4)GlcNAc
# In short: as §1
# [22] = biological target: Gal3S(b1-4)GlcNAc6S
# In short: as §1
# [23] = biological target: Gal3S(b1-4)[Fuc(a1-3)]Glc6S
# In short: as §1
# [24] = biological target: Gal3S(b1-4)[Fuc(a1-3)]GlcNAc
# In short: as §1
# [25] = biological target: Gal3S(b1-4)[Fuc(a1-3)]GlcNAc6S
# In short: as §1
# [26] = biological target: Gal3S4S(b1-4)GlcNAc
# In short: as §1
# [27] = biological target: Gal3S6S(b1-4)GlcNAc
# In short: as §1
# [28] = biological target: Gal3S6S(b1-4)GlcNAc6S
# In short: as §1
# [29] = biological target: Gal4S(b1-4)GlcNAc
# In short: as §1
# [30] = biological target: Gal4S6S(b1-4)GlcNAc
# In short: as §1
# [31] = biological target: Gal6P(b1-4)GlcNAc
# In short: as §1
# [32] = biological target: Gal6S(b1-3)GlcNAc
# In short: as §1
# [33] = biological target: Gal6S(b1-3)GlcNAc6S
# In short: as §1
# [34] = biological target: Gal6S(b1-4)Glc
# In short: as §1
# [35] = biological target: Gal6S(b1-4)Glc6S
# In short: as §1
# [36] = biological target: Gal6S(b1-4)GlcNAc
# In short: as §1
# [37] = biological target: Gal6S(b1-4)GlcNAc6S
# In short: as §1
# [38] = biological target: GalNAc(a1-3)Gal
# In short: as §1
binder,measurement,setting,value
"MGL1 (Mus musculus), P49300 (protein) MIYENLQNSRIEEKTQEPGKAPSQSFLWRILSWTHLLLFSLGLSLLLLVVVSVIGSQNSQLRRDLGTLRATLDNTTSKIKAEFQSLDSRADSFEKGISSLKVDVEDHRQELQAGRDLSQKVTSLESTVEKREQALKTDLSDLTDHVQQLRKDLKALTCQLANLKNNGSEVACCPLHWTEHEGSCYWFSESEKSWPEADKYCRLENSHLVVVNSLEEQNFLQNRLANVVSWIGLTDQNGPWRWVDGTDFEKGFKNWAPLQPDNWFGHGLGGGEDCAHITTGGPWNDDVCQRTFRWICEMKLAKES",glycan array binding signal (z-score),[1],1.23
same,glycan array binding signal (z-score),[2],2.14
same,glycan array binding signal (z-score),[3],-0.392
same,glycan array binding signal (z-score),[4],-0.324
same,glycan array binding signal (z-score),[5],4.54
same,glycan array binding signal (z-score),[6],-0.485
same,glycan array binding signal (z-score),[7],-0.115
same,glycan array binding signal (z-score),[8],-0.459
same,glycan array binding signal (z-score),[9],0.351
same,glycan array binding signal (z-score),[10],1.27
same,glycan array binding signal (z-score),[11],0.507
same,glycan array binding signal (z-score),[12],-0.087
same,glycan array binding signal (z-score),[13],-0.119
same,glycan array binding signal (z-score),[14],-0.635
same,glycan array binding signal (z-score),[15],-0.428
same,glycan array binding signal (z-score),[16],-0.035
same,glycan array binding signal (z-score),[17],-0.163
same,glycan array binding signal (z-score),[18],-0.332
same,glycan array binding signal (z-score),[19],-0.32
same,glycan array binding signal (z-score),[20],-0.2
same,glycan array binding signal (z-score),[21],-0.417
same,glycan array binding signal (z-score),[22],-0.116
same,glycan array binding signal (z-score),[23],1.44
same,glycan array binding signal (z-score),[24],0.62
same,glycan array binding signal (z-score),[25],-0.256
same,glycan array binding signal (z-score),[26],-0.004
same,glycan array binding signal (z-score),[27],-0.223
same,glycan array binding signal (z-score),[28],0.075
same,glycan array binding signal (z-score),[29],0.622
same,glycan array binding signal (z-score),[30],0.176
same,glycan array binding signal (z-score),[31],-1.1
same,glycan array binding signal (z-score),[32],0.178
same,glycan array binding signal (z-score),[33],-0.077
same,glycan array binding signal (z-score),[34],0.208
same,glycan array binding signal (z-score),[35],-0.092
same,glycan array binding signal (z-score),[36],-0.609
same,glycan array binding signal (z-score),[37],-0.187
same,glycan array binding signal (z-score),[38],-0.063
